# Data taken from PubChem BioAssay AID686970 (National Center for Advancing Translational Sciences (NCATS), 2013).
# In all, about 360,000 compounds went through this assay and about 6,000 (1.7%) were called active. The inconclusive results got no clear call from the source; some entries with a clear call stand among them for comparison. The call rests on the fitted dose curve; in most records, active means well fitted cell-killing curve with a large enough effect; inconclusive means small, poorly fitted or top-dose-only effect, or effect the other way; inactive means flat fitted curve, though single readings scatter. No potency is given beside an inconclusive call; the fits are too rough.
# Test: qHTS for induction of synthetic lethality in tumor cells producing 2HG: qHTS for the HT-1080-NT fibrosarcoma cell line;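 further: NT is the 2HG producing partner of a matched IDH1 knockdown line; nearly all actives have a fitted effect of over 55% in size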
# Settings: HT-1080-NT fibrosarcoma viability, CellTiter-Glo ATP luminescence, 48 h; series mostly up to 46.1 µM
# In short: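 HT-1080-NT fibrosarcoma cells (2HG-overproducing), 750 cells/well in RPMI with 5% FBS, dosed after 2 h and incubated 48 h at 37C. CellTiter-Glo luminescence normalized to DMSO and no-cell wells; concentration-response curves fitted and classed.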
# Potency means the concentration at half of the fitted maximal effect; tags describe the fitted curve by direction and shape.
row,Structure (SMILES),Potency
1,O=C(NCC1OCCCN1S(=O)(=O)c1cc(F)ccc1F)C(=O)NC1CCCCC1 (centres undefined),inactive
2,O=C(CN1C(=O)c2cccc3cccc1c23)N1CCc2ccccc2C1,inactive
3,Cc1cccc2c1-c1sc(C(=O)Nc3cccc([N+](=O)[O-])c3C)cc1CO2,inactive
4,COC(=O)CN1C(=S)N(Cc2ccccc2)C(=O)C1CC(=O)Nc1ccc(Br)cc1 (centres undefined),"inconclusive [cytotoxic, single point]"
5,CN1CCN(/N=C/c2ccc(-c3ccc([N+](=O)[O-])cc3Cl)o2)CC1,"inconclusive [cytotoxic, partial curve]"
6,CCc1cc2c(=O)c(-c3ccc4c(c3)OCCO4)coc2cc1OC(=O)c1ccco1,"inconclusive [cytotoxic, single point]"
7,NNC(=O)c1cc2cc3ccccc3nc2s1,"inconclusive [cytotoxic, single point]"
8,COC(=O)c1ccc(N2C(c3cccc(OC)c3)=Cc3ccc(F)cc3C2c2c(C)[nH]c3ccccc23)cc1 (centres undefined),"inconclusive [cytotoxic, single point]"
9,CCN(c1ccccc1)S(=O)(=O)c1ccc(Oc2ccc(C(C)=O)cc2OC)nc1,inactive
10,CC1CCCCN1S(=O)(=O)c1ccc(C(=O)Nc2nnc(-c3ccncc3)o2)cc1 (centres undefined),"inconclusive [cytotoxic, single point]"
11,CCc1c(O)nc(SCC(=O)Nc2nc3ccccc3s2)n(-c2ccccc2)c1=O,"inconclusive [cytotoxic, single point]"
12,Cc1ccc(S(=O)(=O)Nc2cccc3ncccc23)s1,"inconclusive [cytotoxic, partial curve]"
13,C/C=C(\C)C(=O)NNC(=O)c1sc(-c2ccccc2)nc1C,"inconclusive [rising, single point]"
14,COc1ccc(C)cc1NC(=O)NC1CC(=O)N(c2ccc3c(c2)OCCO3)C1 (centres undefined),inactive
15,CCCN1C(=O)c2cc(C(=O)Nc3ccc(OC)cc3OC)ccc2C1Nc1ccc(OC)cc1OC (centres undefined),inactive
16,CC(C)=CCc1c(O)cc2oc3c(CC=C(C)C)c(O)c(O)c(CC=C(C)C)c3c(=O)c2c1O,"inconclusive [cytotoxic, single point]"
17,CN(C)CC(O)COc1ccc(C(C)(C)c2ccc(OCC(O)CN(C)C)cc2)cc1 (centres undefined),"inconclusive [cytotoxic, partial curve, poor fit]"
18,Fc1cccc(Nc2c3c(nc4ccccc24)CCC3)c1,inactive
19,Cc1cccnc1NC(=O)c1c(O)c2ccccc2n(C)c1=O,"inconclusive [cytotoxic, partial curve]"
